Test results: PubChem BioAssay AID1508624 (National Center for Advancing Translational Sciences (NCATS), 2021)
Screen size: about 48,000 compounds; about 120 (0.25%) were called active. Not shown: some 4% with an inconclusive outcome. The call rests on the fitted dose curve; in most records, active means well fitted activation curve with a large enough effect; inconclusive means small, poorly fitted or top-dose-only effect, or another doubt; inactive means no such curve, though single readings can be large or run the other way. The list shows a part of the results.

Assay: Primary qHTS for Identification of Small Molecule Activators of Huntingtin-Antisense Promoter Activity; further: nearly all actives have a fitted effect of over 55% in size
Conditions: HEK293 HTT-AS promoter firefly luciferase reporter (activity 0% = vehicle and -100% = no light), 24 h; series mostly up to 57.5 µM; activity change, positive = activation: at the top concentration
How it was run: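 Quantitative HTS used concentration series of up to 57.5 uM final on HEK293 luciferase reporter cells, 24 h at 37 degrees C. Readout was Dual-Glo firefly luminescence.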

Row | SMILES | activity change, positive = activation
1 | Cc1ccc2nc(SCc3nc(-c4ccccc4C)no3)[nH]c2c1 | inactive: -34.3%
2 | Cc1ccc2c(CC(=O)Nc3c(C(=O)Nc4cccc(Cl)c4)oc4ccccc34)coc2c1C | inactive: 31%
3 | Cc1ccccc1Cn1c(Oc2ccccc2F)nc2c1c(=O)n(C)c(=O)n2C | inactive: 0.387%
4 | Cc1ccc(NC(=O)Cn2c(=O)c(C(F)(F)F)nc3ccccc32)c(C)c1 | inactive: 4.81%
5 | CCCCN(CC)CCNC(=O)Cn1c(=O)c2cccn2c2cccnc21 | inactive: -17.1%
6 | Cc1ccc(N2CCN(C(=O)C3CCC(CNS(=O)(=O)c4ccc(Br)s4)CC3)CC2C)cc1 (stereo unspecified) | inactive: -35.8%
7 | Cc1c(NC(=O)C(C)(C)C)cccc1-c1nc2ccccc2s1 | inactive: 17.8%
8 | Cc1ccc(-n2nc(C(=O)N3CCN(c4cc(C)ccc4C)CC3)c3c4ccccc4n(C)c3c2=O)cc1 | inactive: 6.85%
9 | CCOc1ccccc1NC(=O)Cn1c(=O)n(-c2ccc(Cl)cc2)c(=O)c2oc3ccccc3c21 | inactive: 1.42%
10 | Cn1cc(S(=O)(=O)N2CCc3ccccc32)cc1C(=O)Nc1ccc(C(F)(F)F)cc1 | inactive: -39.7%
11 | CCN(CC)c1ccc(NC(=O)Cn2cc3c(n2)CCCC3)c(C)c1 | inactive: -13.5%
12 | Cn1c(=O)n(C)c2cc(N3CCCCC3)c(NC(=O)Nc3ccc(Br)cc3)cc21 | inactive: -17%
13 | CCc1ccc(NC(=O)CSc2nc3c([nH]c4ccccc43)c(=O)n2C)cc1 | inactive: -14%
14 | Cc1ccc(-n2c(=O)c3ccc(C(=O)NCc4ccccc4Cl)cc3n(Cc3cccc(F)c3)c2=O)cc1 | inactive: -12.8%
15 | Cc1ccc(CNC(=O)C2CCCN(c3nn4cc(-c5ccc(C)cc5)nc4s3)C2)cc1 (stereo unspecified) | inactive: -10.9%
16 | COc1ccc(N2CCN(C(CNC(=O)c3c(F)cccc3F)c3ccc4c(c3)OCO4)CC2)cc1 (stereo unspecified) | inactive: -0.806%
17 | CCOC(=O)c1cc2c(=O)n3ccccc3nc2n(CC2CCCO2)c1=NC(=O)c1ccccc1OCC (stereo unspecified) | inactive: -31.2%
18 | CC(C)n1c(SCC(=O)c2ccc(F)cc2)nc2c(sc3ccccc32)c1=O | inactive: -8.65%
19 | COc1ccccc1OCCCn1c(C2CC(=O)N(c3ccc(F)cc3)C2)nc2ccccc21 (stereo unspecified) | inactive: -11.6%
20 | COc1ccc(CCNC(=O)c2c(Nc3ccccc3C)sc(C(=O)c3ccccc3)c2N)cc1OC | inactive: -25.6%
21 | Cc1cccc2nc(Cn3c(=O)n(-c4ccccc4)c(=O)c4c5c(sc43)CCC5)cc(=O)n12 | inactive: 1.82%

Row | SMILES | activity change, positive = activation
22 | CCOc1ccccc1NC(=O)CSc1nnc(CC)c(CC)n1 | inactive: -6.89%
23 | CCCCC(CC)CNC(=O)c1ccc(Cn2c(=O)[nH]c3cc(OC)c(OC)cc3c2=O)cc1 (stereo unspecified) | inactive: -10.9%
24 | CCN1c2ccccc2-c2nc(SCC(=O)Nc3cc(OC)cc(OC)c3)ncc2S1(=O)=O | inactive: -2.06%
25 | COc1ccc(-c2nn(C)c3sc(C(=O)Nc4cc(OC)c(OC)c(OC)c4)cc23)cc1OC | inactive: -36.3%
26 | CCCN(C(=O)c1c(C)oc2ncn(CC(C)C)c(=O)c12)c1ccccc1C | inactive: -11.5%
27 | CCCOc1ccc(C(=O)Nc2cc(-c3nc4ccccc4[nH]3)ccc2C)cc1 | inactive: 3.7%
28 | COc1cccc(CN2CCCN(Cc3ccc(F)cc3)S2(=O)=O)c1 | inactive: -14.5%
29 | Cc1ccc(O)c(NC(=O)C2=CC(c3cccs3)=NS(=O)(=O)N2C)c1 | inactive: -28.9%
30 | Cc1ccccc1OCC(=O)Nc1nnc(SCc2cc(=O)n3cccc(C)c3n2)s1 | inactive: -3.22%
31 | COc1cccc(CNC(=O)c2cc3cc(C)ccc3n2C)c1 | inactive: -24.5%
32 | Cc1ccccc1OCc1nnc(SCc2cc(=O)c3cc(F)ccc3[nH]2)n1C | inactive: -40.6%
33 | N#C/C(=C\c1cccc(F)c1)c1nc(-c2cc3ccccc3oc2=O)cs1 | inactive: 6.9%
34 | Cc1ccc2c(c1)c1c(c(=O)n(Cc3ccccc3)c(=O)n1Cc1cccc(F)c1)n2C | inactive: -11%
35 | COc1ccc(-c2nc3ccccc3o2)cc1NC(=O)c1cc([N+](=O)[O-])ccc1N1CCOCC1 | inactive: 24%
36 | Cc1ccc(S(=O)(=O)c2cn(CC(=O)Nc3ccc4c(c3)OCO4)c3ccc(C)cc3c2=O)cc1 | inactive: -0.509%
37 | COc1ccc(-c2ccc(CCC(=O)O)n2-c2ccccc2C(F)(F)F)cc1 | inactive: -19%
38 | CCC1CN(CC(=O)NCc2cccc(Br)c2)c2ccccc2S1 (stereo unspecified) | inactive: -19.6%
39 | CC[C@H](c1ccc(O)cc1)[C@@H](CC)c1ccc(O)cc1 | inactive: -28.3%
40 | CCOc1ccc(-c2cc(C)n3nc(C(=O)Nc4ccc(C)c(C)c4)cc3n2)cc1 | inactive: -35.1%
41 | Cc1c(Nc2ncccc2C(=O)O)cccc1C(F)(F)F | inactive: 13.2%
42 | CCc1nnc(SCC(=O)Nc2ccc(OC)c(OC)c2)c2cc3occc3n12 | inactive: -20.2%

Row | SMILES | activity change, positive = activation
43 | CC(Oc1ccccc1)C(=O)Nc1ccccc1C(=O)OCc1cc(=O)n2nc(C3CC3)sc2n1 (stereo unspecified) | inactive: 4.95%
44 | CCc1ccc(N2CC(C)Cn3c2nc2c3c(=O)n(CC(=O)O)c(=O)n2C)cc1 (stereo unspecified) | inactive: -5.85%
45 | COC(=O)Cc1c(C)nc2nc(NCc3ccc(Br)cc3)[nH]n2c1=O | inactive: -3.6%
46 | CCOC(=O)CN(Cc1ccccc1)C(C(=O)NC1CCCCC1)c1ccccc1 (stereo unspecified) | inactive: -43.3%
47 | CCOc1ccc(-n2cc(-c3ccccc3)c3c(NCc4ccccc4)ncnc32)cc1 | inactive: -17.4%
48 | COC(=O)Cc1c(C)c2ccc3c(c2oc1=O)CN(Cc1ccc(Cl)cc1)CO3 | inactive: -22.8%
49 | COCCn1c(SCc2ccccc2F)nc2c([nH]c3ccccc32)c1=O | inactive: -26.2%
50 | COc1ccc(CNC(=O)C2CCN(S(=O)(=O)N3CCC(C)CC3)CC2)c(OC)c1 | inactive: -23.1%
51 | Cc1cccc(CNC(=O)c2ccc(Cn3c(SCc4cccc(F)c4)nc4cccnc43)cc2)c1 | inactive: -32%
52 | COc1cc(CN(C(=O)c2ccc(C)cc2)C2CCS(=O)(=O)C2)cc(OC)c1OC (stereo unspecified) | inactive: 5.8%
53 | CCCSc1ncc(Cl)c(C(=O)Nc2ccc(S(=O)(=O)N3CCCCC3C)cc2)n1 (stereo unspecified) | inactive: -37.2%
54 | COc1cccc(NC(=O)C2CC(=O)N(c3ccc(Br)cc3)C2)c1 (stereo unspecified) | inactive: -14.5%
55 | COc1ccc(NC(=O)CCn2cnnn2)cc1 | inactive: -2.62%
56 | CC(C)(C)c1ccccc1NC(=O)CSc1nc(-c2cccs2)cc(C(F)(F)F)n1 | inactive: -33.1%
57 | Cc1nn(CC(=O)Nc2cc(F)ccc2F)c(=O)c2cccn12 | inactive: -4.91%
58 | CC(C)c1noc(-c2ccccc2OCC(=O)Nc2ccccc2[N+](=O)[O-])n1 | inactive: -32.7%
59 | Cc1cc(Nc2ccc(Cl)cc2C)nc(-n2nc(C)cc2C)n1 | inactive: -38.5%
60 | O=C(NCc1ccc2c(c1)CCN2C(=O)c1ccc(F)cc1)c1ccco1 | inactive: -11.8%
61 | Cc1c(CNC2CCCCC2)c(C(=O)O)c(C)n1Cc1ccc(F)cc1 | inactive: -12.7%
